Reference: PubChem BioAssay (NCI)
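Five concentrations, 48 hours, 96-well plates. GI50: concentration for 50% inhibition of growth.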 Not every entry of the source has a single result; some have several. The list is limited to them. An entry can have further records. For some of these results: A record mostly stands for its own series of concentrations, not given here; a value can be the end of its range.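 TGI: concentration producing complete growth inhibition.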 For some of these results: Values that stand side by side are repeated measurements across runs, samples, wells, individuals or studies. A tag in brackets gives the origin of a value. A, B and so on number the origins entry by entry.

Tests used:
Test in all cases: growth of human tumour cells (NCI), 48 h
HOP-92 NSCLC = tested on: HOP-92 NSCLC
HT29 colon = tested on: HT29 colon
OVCAR-5 ovarian = tested on: OVCAR-5 ovarian
A549 NSCLC = tested on: A549 NSCLC
CCRF-CEM leukemia = tested on: CCRF-CEM leukemia
MOLT-4 leukemia = tested on: MOLT-4 leukemia
NCI/ADR-RES ovarian = tested on: NCI/ADR-RES ovarian
T-47D breast = tested on: T-47D breast
HL-60(TB) leukemia = tested on: HL-60(TB) leukemia
UO-31 renal = tested on: UO-31 renal
786-0 renal = tested on: 786-0 renal
M14 melanoma = tested on: M14 melanoma
OVCAR-8 ovarian = tested on: OVCAR-8 ovarian
TK-10 renal = tested on: TK-10 renal
UACC-62 melanoma = tested on: UACC-62 melanoma

## Nc1ccccc1NC(=O)c1ccc(CNC(=O)OCc2cccnc2)cc1
HOP-92 NSCLC
  TGI: 17.8 µM [sample A] and 886 nM [sample B]
HT29 colon
  TGI: 5.82 µM [sample A] and > 100 µM [sample B]
OVCAR-5 ovarian
  TGI: 771 nM [sample A] and 49.5 µM [sample B]

## COc1ccc2c(c1)c1c(C)c3cnccc3c(C)c1n2CCCN
A549 NSCLC
  TGI: 1.43 µM and 132 nM
CCRF-CEM leukemia
  TGI: 13.4 µM [1 test] and 417 nM [mean of 3 tests]
MOLT-4 leukemia
  GI50: < 10 nM [1 test] and 119 nM [mean of 3 tests]

## C/C=C/C1=CN2C(=O)c3cc(OC4OC(C)C(NC)C(C)(O)C4O)c(C)cc3N=C[C@@H]2C1 (stereo partly specified)
NCI/ADR-RES ovarian
  GI50: 191 nM and 14.6 nM
T-47D breast
  TGI: 92.2 nM and 5.61 µM

## O=[N+]([O-])c1cccc2nc3ccccc3c(NCCN(CCO)CCO)c12
HL-60(TB) leukemia
  TGI: 786 nM and 13.8 nM
UO-31 renal
  TGI: 104 nM and 1.48 µM

## CC(C)C[C@@H](NC(=O)[C@@H](Cc1ccccc1)NC(=O)c1cnccn1)B1Oc2ccc(C[C@H](NC(=O)[C@H](Cc3ccc4c(c3)OB([C@@H](CC(C)C)NC(=O)[C@@H](Cc3ccccc3)NC(=O)c3cnccn3)O4)NC(=O)[C@@H](N)CC3CCC4OB([C@@H](CC(C)C)NC(=O)[C@@H](CC5CCCCC5)NC(=O)C5CNCCN5)OC4C3)C(=O)NCCCC[C@@H]3NC(=O)[C@@H](Cc4ccccc4)NC(=O)[C@H](CC(=O)O)NC(=O)CNC(=O)[C@H](CCCNC(=N)N)NC3=O)cc2O1 (stereo partly specified)
786-0 renal
  TGI: 36.8 nM and 762 nM
HT29 colon
  TGI: 114 nM and 4.56 nM
M14 melanoma
  TGI: 141 nM and 3.77 nM
OVCAR-8 ovarian
  TGI: 460 nM and 33.4 nM
TK-10 renal
  TGI: 105 nM and 4.97 nM
UACC-62 melanoma
  TGI: 78.3 nM and 6.19 nM
